# From the supplement of paper PMC6089552
# Hit rate of the full screen: of about 3,200 compounds, about 300 (9.4%) showed activity. The entries are a selection whose mix differs from that of the whole data set.
# System: A673/TR/shEF
# Test: cell viability (LOESS-normalised, relative to median of negative controls) (log2 ratio); higher = more viable cells (less compound effect), active = hit call of the paper (over 3 MAD below the median)
# Conditions: treatment time: 72 h
# Procedure, shortened: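 For three days, A673/TR/shEF Ewing sarcoma cells in 384-well plates (1,500 per well) were treated with library compounds at two or more concentrations or with DMSO controls, after doxycycline had been added or withheld 24 h beforehand to induce EWS-FLI1 shRNA knockdown. Viability was read by CellTiter-Glo luminescence on an Envision reader. The data were LOESS-corrected per plate, divided by the median of negative controls and log2-transformed.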
# [1] = 0.25 µM, library screen: screen2, EWS-FLI1 expression: high (no doxycycline)
# [2] = 0.25 µM, library screen: screen2, EWS-FLI1 expression: low (doxycycline-induced shRNA knockdown)
# [3] = 2.5 µM, library screen: screen2, EWS-FLI1 expression: high (no doxycycline)
# [4] = 2.5 µM, library screen: screen2, EWS-FLI1 expression: low (doxycycline-induced shRNA knockdown)
# [5] = 0.25 µM, library screen: screen1, EWS-FLI1 expression: high (no doxycycline)
# [6] = 0.25 µM, library screen: screen1, EWS-FLI1 expression: low (doxycycline-induced shRNA knockdown)
# [7] = 2.5 µM, library screen: screen1, EWS-FLI1 expression: high (no doxycycline)
# [8] = 2.5 µM, library screen: screen1, EWS-FLI1 expression: low (doxycycline-induced shRNA knockdown)
# [9] = 0.926 µM, library screen: screen3, EWS-FLI1 expression: high (no doxycycline)
# [10] = 2.8 µM, library screen: screen3, EWS-FLI1 expression: high (no doxycycline)
# [11] = 8.3 µM, library screen: screen3, EWS-FLI1 expression: high (no doxycycline)
# [12] = 25 µM, library screen: screen3, EWS-FLI1 expression: high (no doxycycline)
# [13] = 0.103 µM, library screen: screen3, EWS-FLI1 expression: high (no doxycycline)
# [14] = 0.103 µM, library screen: screen3, EWS-FLI1 expression: low (doxycycline-induced shRNA knockdown)
# [15] = 0.308 µM, library screen: screen3, EWS-FLI1 expression: high (no doxycycline)
# [16] = 0.308 µM, library screen: screen3, EWS-FLI1 expression: low (doxycycline-induced shRNA knockdown)
# [17] = 0.926 µM, library screen: screen3, EWS-FLI1 expression: low (doxycycline-induced shRNA knockdown)
# [18] = 2.8 µM, library screen: screen3, EWS-FLI1 expression: low (doxycycline-induced shRNA knockdown)
# [19] = 8.3 µM, library screen: screen3, EWS-FLI1 expression: low (doxycycline-induced shRNA knockdown)
# [20] = 25 µM, library screen: screen3, EWS-FLI1 expression: low (doxycycline-induced shRNA knockdown)
structure (smiles),measurement,setting,value
CCCCCCCCCCCCCCCC(=O)NCC(COP(=O)([O-])OCC[N+](C)(C)C)OC (stereo not drawn),cell viability (log2),[1],inactive: 0.14
same,cell viability (log2),[2],inactive: 0.124
same,cell viability (log2),[3],inactive: 0.166
same,cell viability (log2),[4],inactive: 0.0176
COc1cc(NS(=O)(=O)c2ccc(N)cc2)ncn1,cell viability (log2),[5],inactive: 0.124
same,cell viability (log2),[6],inactive: -0.0105
same,cell viability (log2),[7],inactive: 0.119
same,cell viability (log2),[8],inactive: 0.0803
COc1cc(O)c2c(=O)c(OC)c(-c3ccc(OC)c(OC)c3)oc2c1,cell viability (log2),[5],inactive: 0.149
same,cell viability (log2),[6],inactive: 0.0908
same,cell viability (log2),[7],inactive: 0.162
same,cell viability (log2),[8],inactive: 0.0431
CN([C@@H](Cc1ccc(OS(=O)(=O)c2cccc3cnccc23)cc1)C(=O)N1CCN(c2ccccc2)CC1)S(=O)(=O)c1cccc2cnccc12,cell viability (log2),[7],active: -0.171
same,cell viability (log2),"25 µM, library screen: screen1, EWS-FLI1 expression: high (no doxycycline)",active: -0.315
O=C(O)C1=CC(=C(c2ccc(O)c(C(=O)O)c2)c2ccc(O)c(C(=O)O)c2)C=CC1=O,cell viability (log2),[1],inactive: 0.177
same,cell viability (log2),[2],inactive: 0.131
same,cell viability (log2),[3],inactive: 0.0778
same,cell viability (log2),[4],inactive: 0.154
O=c1ccn([C@@H]2O[C@H](COP(=O)(O)OP(=O)(O)O)[C@@H](O)[C@H]2O)c(=O)[nH]1,cell viability (log2),[1],inactive: 0.14
same,cell viability (log2),[2],inactive: 0.0724
same,cell viability (log2),[3],inactive: 0.171
same,cell viability (log2),[4],inactive: 0.0953
CC(C(O)c1ccc(O)cc1)N1CCC(Cc2ccccc2)CC1 (stereo not drawn),cell viability (log2),[1],inactive: 0.0651
same,cell viability (log2),[2],inactive: 0.135
same,cell viability (log2),[3],inactive: 0.0255
same,cell viability (log2),[4],inactive: 0.077
NC(=O)c1ccccc1,cell viability (log2),[1],inactive: 0.227
same,cell viability (log2),[2],inactive: 0.106
same,cell viability (log2),[3],inactive: 0.0514
same,cell viability (log2),[4],inactive: 0.136
C[C@H](CS)C(=O)N1CCC[C@H]1C(=O)O,cell viability (log2),[5],inactive: 0.0472
same,cell viability (log2),[6],inactive: -0.0251
same,cell viability (log2),[1],inactive: 0.157
same,cell viability (log2),[2],inactive: 0.151
same,cell viability (log2),[7],inactive: 0.121
same,cell viability (log2),[8],inactive: 0.021
same,cell viability (log2),[3],inactive: 0.173
same,cell viability (log2),[4],inactive: 0.016
CN(Cc1cc(Br)cc(Br)c1N)C1CCCCC1,cell viability (log2),[5],inactive: 0.0812
same,cell viability (log2),[6],inactive: 0.172
same,cell viability (log2),[7],inactive: 0.0865
same,cell viability (log2),[8],inactive: 0.262
CC1(C)O[C@@H]2C[C@H]3[C@@H]4C[C@H](F)C5=CC(=O)C=C[C@]5(C)[C@H]4[C@@H](O)C[C@]3(C)[C@]2(C(=O)CO)O1,cell viability (log2),[5],inactive: 0.115
same,cell viability (log2),[6],inactive: -0.269
same,cell viability (log2),[7],inactive: 0.129
same,cell viability (log2),[8],inactive: -0.268
Cn1cnc2c(F)c(Nc3ccc(Br)cc3Cl)c(C(=O)NOCCO)cc21,cell viability (log2),[9],active: -0.189
same,cell viability (log2),[10],active: -0.222
same,cell viability (log2),[11],active: -0.293
same,cell viability (log2),[12],active: -0.303
CC(=O)O[C@H]1CC[C@@]2(C)C(CC[C@]3(C)C2CC=C2C4CC(C)(C)CC[C@]4(C)CCC23C)C1(C)C (stereo partly drawn),cell viability (log2),[5],inactive: 0.05
same,cell viability (log2),[6],inactive: 0.112
same,cell viability (log2),[7],inactive: 0.0854
same,cell viability (log2),[8],inactive: 0.111
NCCc1ccc(O)c(O)c1,cell viability (log2),[13],inactive: 0.0229
same,cell viability (log2),[14],inactive: 0.12
same,cell viability (log2),[5],inactive: 0.134
same,cell viability (log2),[6],inactive: 0.13
same,cell viability (log2),[1],inactive: 0.116
same,cell viability (log2),[2],inactive: 0.0773
same,cell viability (log2),[15],inactive: 0.0305
same,cell viability (log2),[16],inactive: 0.0741
same,cell viability (log2),[9],inactive: 0.024
same,cell viability (log2),[17],inactive: 0.0268
same,cell viability (log2),[7],inactive: 0.261
same,cell viability (log2),[8],inactive: 0.195
same,cell viability (log2),[3],inactive: 0.104
same,cell viability (log2),[4],inactive: 0.0824
same,cell viability (log2),[10],inactive: 0.0629
same,cell viability (log2),[18],inactive: -0.00804
same,cell viability (log2),[11],inactive: -0.0412
same,cell viability (log2),[19],inactive: 0.0864
same,cell viability (log2),[12],inactive: 0.0364
same,cell viability (log2),[20],inactive: 0.105
C=C1c2cc(OC)ccc2NC(=O)N1c1ccccc1,cell viability (log2),[5],inactive: 0.0622
same,cell viability (log2),[6],inactive: 0.09
same,cell viability (log2),[7],inactive: 0.104
same,cell viability (log2),[8],inactive: 0.0838
NC(N)=NC(N)=Nc1ccccc1,cell viability (log2),[5],inactive: 0.0892
same,cell viability (log2),[6],inactive: -0.00769
same,cell viability (log2),[1],inactive: 0.168
same,cell viability (log2),[2],inactive: 0.0794
same,cell viability (log2),[7],inactive: 0.142
same,cell viability (log2),[8],inactive: 0.0402
same,cell viability (log2),[3],inactive: 0.19
same,cell viability (log2),[4],inactive: 0.0668
CC(C)c1c(O)ccc2c1CCC1[C@@](C)(C=O)CCC[C@]21C (stereo partly drawn),cell viability (log2),[5],inactive: 0.0641
same,cell viability (log2),[6],inactive: 0.0754
same,cell viability (log2),[7],inactive: 0.163
same,cell viability (log2),[8],inactive: 0.289
CC(C)C[C@H](NC(=O)OCC1c2ccccc2-c2ccccc21)C(=O)O,cell viability (log2),[5],inactive: 0.0635
same,cell viability (log2),[6],inactive: 0.0579
same,cell viability (log2),[7],inactive: 0.116
same,cell viability (log2),[8],inactive: -0.00318
COc1cc(OC)c(C2NC(=S)NC(C)=C2C(=O)Nc2ccccc2Cl)cc1OC (stereo not drawn),cell viability (log2),[5],inactive: 0.0713
same,cell viability (log2),[6],inactive: 0.0952
same,cell viability (log2),[7],inactive: 0.0303
same,cell viability (log2),[8],inactive: 0.0128
O=C(Cc1ccccc1)NO,cell viability (log2),[5],inactive: 0.111
same,cell viability (log2),[6],inactive: 0.0668
same,cell viability (log2),[7],inactive: 0.126
same,cell viability (log2),[8],inactive: 0.0445
CCCCCC(O)CCCC(=O)O (stereo not drawn),cell viability (log2),[1],inactive: 0.202
same,cell viability (log2),[2],inactive: 0.058
same,cell viability (log2),[3],inactive: 0.124
same,cell viability (log2),[4],inactive: 0.143
CC(C)CCC[C@@H](C)[C@H]1CC[C@H]2[C@@H]3C[C@@H](O)[C@@]4(O)C[C@@H](O)CC[C@]4(C)[C@H]3CC[C@]12C,cell viability (log2),[5],inactive: 0.0995
same,cell viability (log2),[6],inactive: 0.0108
same,cell viability (log2),[7],inactive: 0.0184
same,cell viability (log2),[8],inactive: -0.248
Nc1ncnc2c1ncn2C1CCCC1,cell viability (log2),[1],inactive: 0.222
same,cell viability (log2),[2],inactive: 0.00723
same,cell viability (log2),[3],inactive: 0.162
same,cell viability (log2),[4],inactive: 0.101
CC(=O)OCC(=O)[C@@]1(O)CC[C@H]2[C@@H]3CCC4=CC(=O)C=C[C@]4(C)[C@H]3[C@@H](O)C[C@@]21C,cell viability (log2),[13],inactive: 0.0212
same,cell viability (log2),[14],inactive: 0.0869
same,cell viability (log2),[5],inactive: 0.0683
same,cell viability (log2),[6],inactive: 0.0239
same,cell viability (log2),[15],inactive: -0.0308
same,cell viability (log2),[16],inactive: -0.0136
same,cell viability (log2),[9],inactive: -0.0423
same,cell viability (log2),[17],inactive: 0.1
same,cell viability (log2),[7],inactive: 0.176
same,cell viability (log2),[8],inactive: -0.0298
same,cell viability (log2),[10],inactive: -0.0346
same,cell viability (log2),[18],inactive: 0.0288
same,cell viability (log2),[11],inactive: -0.0211
same,cell viability (log2),[19],inactive: 0.081
same,cell viability (log2),[12],inactive: -0.0344
same,cell viability (log2),[20],inactive: 0.0787
C[C@]12CCC(=O)C=C1CC[C@@H]1[C@@H]2[C@@H](O)C[C@@]2(C)[C@H]1CC[C@]2(O)C(=O)COP(=O)(O)O,cell viability (log2),[5],inactive: 0.073
same,cell viability (log2),[6],inactive: 0.0336
same,cell viability (log2),[7],inactive: 0.192
same,cell viability (log2),[8],inactive: -0.129
CCCCOc1ccc(C(=O)CCN2CCCCC2)cc1,cell viability (log2),[5],inactive: 0.096
same,cell viability (log2),[6],inactive: 0.13
same,cell viability (log2),[7],inactive: 0.175
same,cell viability (log2),[8],inactive: 0.159
